Laboratory results published in PubChem BioAssay AID588855 (National Center for Advancing Translational Sciences (NCATS), 2011).
Hit rate of the full screen: of about 410,000 compounds, about 5,000 (1.2%) were called active. The inconclusive results got no clear call from the source; some entries with a clear call stand among them for comparison. Calls come from the whole dose curve; as a rule, active = well fitted inhibition curve with a large enough effect; inconclusive = small, poorly fitted or top-dose-only effect; inactive = no such curve, though single readings can be large or run the other way. A potency beside an inconclusive call is a rough fit, not a confirmed value.

Assay: qHTS for Inhibitors of TGF-b; note: nearly all actives have a fitted effect of over 65% in size
Conditions: HepG2 CAGA-GFP TGF-b/SMAD3 reporter, GFP fluorescence, 18 h, TGF-beta stimulated, 500 pg/mL final; series mostly up to 46.1 µM; activity, negative = inhibition: at the top concentration
Summary of the method: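 GFP signal (ex488/em500-530) from TGF-beta-stimulated HEPG2 CAGA-GFP cells, 500 pg/mL final, 18 h at 37 degrees C in DMEM plus 1% FBS, normalized to unstimulated and DMSO-stimulated controls.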
% is set by controls: 0 for no effect and ±100 for the full control effect; potency is the fitted concentration of half-maximal effect; tags give direction and shape of the fitted curve.

SMILES | Potency | activity, negative = inhibition
O=C(Cc1c(Sc2ccccc2)c2ccccc2n1Cc1ccccc1)NCCO | inconclusive: 35.5 µM [inhibitor, single point] | 
CCn1ccnc1CN(C)Cc1cn(-c2ccc(C)cc2)nc1-c1cccc(C)c1 | inconclusive: 35.5 µM [inhibitor, single point] | 
O=S(=O)(Nc1ccc(Cc2ccncc2)cc1)c1ccc(Cl)cc1 | inconclusive: 12.6 µM [inhibitor, single point] | 
OCCc1ccc(NCCc2cccs2)cc1 |  | inactive: -1.91%
CCOC(=O)C(=O)Nc1nccs1 |  | inactive: -15.9%
O=C(Nc1cccc(Cl)c1)NC1CC2CCC(C1)N2Cc1cccs1 (stereo not given) |  | inactive: 0.206%
Cc1ccc(C2C=C(c3ccccc3OC(F)F)Nc3ncnn32)cc1 (stereo not given) |  | inactive: 4.52%
COc1ccc(Nc2oc(COc3ccc(C)cc3)nc2C#N)cc1 | inconclusive: 14.1 µM [inhibitor, single point] | 
CCCN1CCN(c2ncnc3sc(C(=O)Nc4c(C)cc(C)cc4C)c(C)c23)CC1 | inconclusive: 0.282 µM [inhibitor, full curve, poor fit] | 
Cc1nc(C)c(/C(O)=C/c2nc3ccccc3oc2=O)s1 | inconclusive: 25.1 µM [inhibitor, single point] | 
CCCn1nc(NC(=O)c2cccs2)c2cc3ccc(C)cc3nc21 |  | inactive: -10.7%
CC(=O)Nc1cccc(-c2ccnc3c2CC(C)(C(=O)NCc2ccccc2)O3)c1 (stereo not given) | inconclusive: 7.94 µM [inhibitor, partial curve, poor fit] | 
Cc1ccc(S(=O)(=O)c2c(C)nn(C(C)(C)C)c2OC(=O)c2ccco2)cc1 | inconclusive: 35.5 µM [inhibitor, single point] | 
CCCCOC(=O)/C=C\C(=O)NC(N)=O | inconclusive: 22.4 µM [inhibitor, partial curve, poor fit] | 
CCOC(=O)N1CCN(C(=O)COc2cccc3c2CCN(Cc2ccc(F)cc2)C3=O)CC1 | inconclusive: 7.94 µM [inhibitor, partial curve] | 
Cc1ccc(NC(=O)c2sc3nc(N4CCOCC4)c4c(c3c2N)CC(C)(C)OC4)cc1 |  | inactive: 9.48%
CN(C)CCNC(=O)c1ccccc1-c1ccccc1 |  | inactive: 2.54%
COc1cccc(OCCSc2nc(N)cc(N)n2)c1 |  | inactive: -8.01%
CC(C)NC(=S)Nc1ccc2cn[nH]c2c1 | inconclusive: 6.31 µM [inhibitor, single point] | 
Cc1ccccc1Cn1c2ccccc2c2cnn(CC(=O)NC3CCC(C)CC3)c(=O)c21 (stereo not given) |  | inactive: -31%
COc1cc(NC(=O)C(CC(C)C)NS(=O)(=O)c2ccc3c(c2)CCN3C(C)=O)cc(OC)c1 (stereo not given) | inconclusive: 12.6 µM [inhibitor, single point] | 
CCCCCCC(=O)Nc1nc(C)c(-c2csc(Nc3cccc(OC)c3)n2)s1 | inconclusive: 0.112 µM [inhibitor, full curve, poor fit] | 
CCc1ccc(CNCc2c(C(=O)O)n(Cc3ccc(C)cc3)c3cc(C)ccc23)cc1 | active: 15.8 µM | 

SMILES | Potency | activity, negative = inhibition
N/C(CSc1ccc(Cl)cc1)=N\S(=O)(=O)c1ccc(Cl)cc1 | inconclusive: 7.08 µM [inhibitor, full curve] | 
CC(=O)COc1ccc2c(-c3ccccc3)cc(=O)oc2c1C |  | inactive: 18.7%
O=C(NNC(=O)c1cccnc1SCc1cccc([N+](=O)[O-])c1)c1ccc(F)cc1 |  | inactive: -4.33%
CCOC(=O)N1CCC(NC(=O)C2CCN(C(=O)c3cc4oc(C)cc4n3Cc3c(F)cccc3Cl)CC2)CC1 |  | inactive: -29.7%
S=C(NCC1CCCO1)N1CCN(Cc2ccccc2Cl)CC1 (stereo not given) | inconclusive: 35.5 µM [inhibitor, single point] | 
O=S(=O)(c1ccc(Br)c2ccccc12)N1CCCC1 | inconclusive: 11.2 µM [inhibitor, partial curve, poor fit] | 
Cc1ccc(S(=O)(=O)NCC(=O)N(CC(=O)NCc2ccco2)Cc2ccco2)cc1 |  | inactive: -1.87%
O=C(Nc1ccc(S(=O)(=O)N2CCOCC2)cc1)C1CCN(S(=O)(=O)c2ccc(Cl)cc2)CC1 | inconclusive: 20 µM [inhibitor, single point] | 
CSc1nn(Cc2cccc(C)c2)c(N)c1S(=O)(=O)c1ccccc1 | inconclusive: 14.1 µM [inhibitor, partial curve, poor fit] | 
Cc1noc(C)c1C(=O)Nc1cccc2ncccc12 |  | inactive: 16.9%
O=C(OCC(=O)N1CCC(c2ccccc2)=N1)c1ccc([N+](=O)[O-])s1 | inconclusive: 14.1 µM [inhibitor, partial curve, poor fit] | 
CCOC(=O)C(NC(=O)c1cccc(Cl)c1)(OCc1ccc(F)cc1)C(F)(F)F (stereo not given) |  | inactive: -32.8%
CC(=O)c1ccc(N(CC(=O)NC2CCS(=O)(=O)C2)S(=O)(=O)c2ccc(Cl)cc2)cc1 (stereo not given) |  | inactive: 3.29%
CCOC(=O)C1CCN(C2=NC(=O)/C(=C/c3ccccc3OC)S2)CC1 |  | inactive: -24.8%
C=CCNC(=O)c1c(N)n(-c2cccc(S(N)(=O)=O)c2)c2nc3ccccc3nc12 | inconclusive: 22.4 µM [inhibitor, single point] | 
CCOC(=O)c1ccccc1NC(=O)COc1ccccc1-c1nnc(-c2ccccc2)o1 | inconclusive: 35.5 µM [inhibitor, single point] | 
COc1ccc(CN2CCC(=O)N([C@H](CO)c3ccccc3)CC2)cc1OC | inconclusive: 35.5 µM [inhibitor, single point] | 
CCn1cc(/C=C(\NC(=O)c2ccccc2OC)C(=O)NCCCN2CCOCC2)c2ccccc21 | inconclusive: 25.1 µM [inhibitor, single point] | 
CC(NC(=O)CSc1nc2ccc(N)cc2s1)c1ccccc1 (stereo not given) | inconclusive: 7.94 µM [inhibitor, partial curve, poor fit] | 
COc1ccccc1C(=O)NCCn1ccc2ccccc21 | inconclusive: 0.562 µM [inhibitor, full curve, poor fit] | 
O=C(Nc1nc2ccccc2[nH]1)c1ccc(Cl)c(S(=O)(=O)N2CCCC2)c1 | inconclusive: 35.5 µM [inhibitor, partial curve, poor fit] | 
Cc1c(Cl)cccc1NC(=S)NCCc1ccc(F)cc1 | inconclusive: 35.5 µM [inhibitor, single point] | 
